Experimental data taken from the supplement of paper PMC12217912.
This is one part of the list. Sequences were assembled here from the parent chain. Inactive controls read about 0.05.

B1: TEV protease; numbered along this chain (parent)
chain: MGESLFKGPRDYNPISSSICHLTNESDGHTTSLYGIGFGPFIITNKHLFRRNNGTLVVQSLHGVFKVKDTTTLQQHLVDGRDMIIIRMPKDFPPFPQKLKFREPQREERICLVTTNFQTKSMSSMVSDTSCTFPSGDGIFWKHWIQTKDGQCGSPLVSTRDGFIVGIHSASNFTNTNNYFTSVPKNFMELLTNQEAQQWVSGWRLNADSVLWGGHKVFMVKPEEPFQPVKEATQL

Variants of: B1
Test: raw area under fraction-flipped curve 0-4 h after induction (AUC4h, not background-subtracted), DNA-recorder readout of cleavage of the substrate (dimensionless); higher = more cleavage of the substrate by the protease variant
Conditions: temperature: 34 °C; time window: 0-4 h after rhamnose induction
Method: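 In vivo DNA recorder in E. coli TOP10(DE3) ΔrhaA at 34 °C. Each TEVp single-site mutant (parent TEVp 0) is paired with a single-site variant of the 7-mer TEVs (canonical ENLYFQ|S). The substrate sits between flexible linkers in a Bxb1-sfGFP-TEVs-SsrA fusion, so cleavage stabilises Bxb1 and speeds flipping of a recombination array, read by NGS. The value is the raw area under the fraction-flipped curve over 0-4 h after rhamnose induction (AUC4h), with ≥20 reads per time point. It is not background-subtracted; inactive controls average about 0.047.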
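Further: Bxb1 expression induced with 0.2% (w/v) L-rhamnose at OD600 near 0.5, cultures sampled hourly, flipped fraction per protease–substrate barcode pair counted by paired-end Illumina sequencing.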

Variant | area with substrate ENLYDQS | area with substrate ENLYEQS | area with substrate ENLYGQS | area with substrate ENLYHQS | area with substrate ENLYKQS | area with substrate ENLYLQS | area with substrate ENLYMQS | area with substrate ENLYNQS | area with substrate ENLYQQS | area with substrate ENLYRQS | area with substrate ENLYSQS | area with substrate ENLYTQS | area with substrate ENLYVQS | area with substrate ENLYYQS | area with substrate ENLYIQS | area with substrate ENLYPQS | area with substrate ENLYWQS
T192L | 0.0629 | 0.0656 | 0.0613 | 0.0706 | 0.042 | 0.078 | 0.0751 | 0.0703 | 0.0615 | 0.0575 | 0.081 | 0.0715 | 0.069 | 0.068 | – | – | –
M219F | 0.0797 | 0.0745 | 0.0794 | 0.0683 | 0.0268 | – | 0.0698 | 0.0909 | 0.0679 | 0.0596 | – | – | – | 0.0704 | 0.11 | 0.0829 | 0.0926
V64Y | 0.0762 | 0.0716 | – | 0.0769 | 0.0704 | – | 0.104 | 0.066 | – | 0.0964 | 0.0676 | 0.0678 | – | – | 0.104 | 0.0614 | 0.0933
Q198F | 0.053 | 0.0684 | 0.0489 | 0.0678 | 0.0536 | 0.0709 | 0.0768 | 0.0658 | 0.0694 | 0.0649 | 0.0638 | – | 0.108 | 0.0671 | 0.0815 | 0.0713 | 0.0807
D208M | 0.0612 | 0.0541 | 0.0697 | 0.0711 | 0.0686 | 0.0696 | 0.0578 | 0.0607 | 0.0652 | – | 0.0615 | 0.0688 | 0.0678 | – | 0.0778 | 0.0718 | –
G80M | 0.0435 | 0.0654 | 0.0631 | 0.0582 | 0.0743 | – | 0.0827 | – | 0.0521 | 0.0611 | – | 0.0866 | – | 0.0688 | 0.138 | 0.0868 | 0.0831
F65A | 0.0464 | 0.0923 | – | 0.067 | 0.0658 | 0.0721 | – | 0.0653 | – | 0.0619 | – | – | – | – | 0.0785 | 0.0718 | –
D128S | 0.0504 | 0.0574 | – | 0.116 | – | – | 0.102 | 0.093 | 0.0654 | 0.0716 | – | – | – | – | – | 0.105 | –
S209I | 0.0633 | – | – | – | – | – | – | – | – | – | – | – | – | – | – | 0.0521 | –
F101W | 0.0919 | 0.0643 | 0.0629 | 0.0714 | 0.0515 | – | 0.0912 | – | 0.0498 | 0.0664 | – | – | 0.124 | 0.0704 | – | – | –
S16F | 0.059 | 0.0708 | – | 0.0654 | 0.0695 | – | 0.0728 | 0.0723 | – | 0.0879 | 0.0892 | – | 0.118 | 0.0733 | 0.124 | 0.0674 | 0.0997
K216T | 0.0641 | 0.0635 | – | 0.0598 | 0.0745 | – | 0.0718 | – | 0.0572 | – | 0.064 | 0.0676 | 0.11 | 0.0495 | 0.0938 | – | 0.0731
C152H | 0.0705 | 0.063 | – | 0.0648 | 0.0829 | – | – | – | – | – | 0.0568 | – | – | – | – | 0.0674 | –
C152R | 0.0673 | 0.0715 | 0.0553 | 0.0582 | 0.0442 | 0.0608 | 0.0642 | 0.0618 | 0.0596 | 0.0621 | 0.0657 | – | 0.0666 | – | 0.045 | – | 0.0577
V200K | 0.0904 | 0.047 | – | – | – | – | 0.0835 | 0.0606 | – | – | – | 0.0716 | – | – | – | – | –
I164F | 0.045 | – | 0.0468 | – | – | – | 0.0257 | – | – | – | 0.024 | – | – | – | – | – | –
I85L | 0.0719 | 0.0719 | 0.0368 | – | 0.0314 | – | 0.0875 | – | – | 0.0671 | 0.0939 | 0.097 | 0.121 | – | 0.125 | – | –
